# Measured values from the supplement of paper PMC8728848.
# Some of the results follow.
# B1: Gal 4 (Homo sapiens), Q8K419 (protein)
# chain: MAYVPAPGYQPTYNPTLPYKRPIPGGLSVGMSVYIQGMAKENMRRFHVNFAVGQDDGADVAFHFNPRFDGWDKVVFNTMQSGQWGKEEKKKSMPFQKGKHFELVFMVMPEHYKVVVNGNSFYEYGHRLPVQMVTHLQVDGDLELQSINFLGGQPAAAPYPGAMTIPAYPAGSPGYNPPQMNTLPVMTGPPVFNPRVPYVGALQGGLTVRRTIIIKGYVLPTARNFVINFKVGSSGDIALHLNPRIGDSVVRNSFMNGSWGAEERKVAYNPFGPGQFFDLSIRCGMDRFKVFANGQHLFDFSHRFQAFQMVDTLEINGDITLSYVQI
# Assays:
# Test in all cases: glycan array binding signal (z-score within array); higher = stronger binding
# Settings in all cases: glycan notation: IUPAC condensed, linker removed
# Glc(b1-6)Glc = molecular target: Glc(b1-6)Glc
# Outline: (§1)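 The Consortium for Functional Glycomics database supplied 3228 glycan arrays, of which those lacking an available protein sequence were dropped. The binding signal, a within-array Z-score, was averaged across arrays of the same protein sequence and across linkers. Negative scores can be read as non-binding.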
# GlcA(b1-3)Gal = molecular target: GlcA(b1-3)Gal
# Outline: as §1
# GlcA(b1-3)GlcNAc = molecular target: GlcA(b1-3)GlcNAc
# Outline: as §1
# GlcA(b1-6)Gal = molecular target: GlcA(b1-6)Gal
# Outline: as §1
# [1] = molecular target: GlcNAc(a1-3)Gal(b1-4)GlcNAc
# Outline: as §1
# [2] = molecular target: GlcNAc(a1-4)Gal(b1-3)GlcNAc
# Outline: as §1
# [3] = molecular target: GlcNAc(a1-4)Gal(b1-4)GalNAc
# Outline: as §1
# [4] = molecular target: GlcNAc(a1-4)Gal(b1-4)GlcNAc
# Outline: as §1
# [5] = molecular target: GlcNAc(a1-4)Gal(b1-4)GlcNAc(b1-3)Gal(b1-4)Glc
# Outline: as §1
# [6] = molecular target: GlcNAc(a1-4)Gal(b1-4)GlcNAc(b1-3)Gal(b1-4)GlcNAc
# Outline: as §1
# [7] = molecular target: GlcNAc(a1-4)Gal(b1-4)GlcNAc(b1-3)Gal(b1-4)GlcNAc(b1-3)Gal(b1-4)GlcNAc
# Outline: as §1
# [8] = molecular target: GlcNAc(a1-4)Gal(b1-4)GlcNAc(b1-3)Gal(b1-4)[Fuc(a1-3)]GlcNAc(b1-3)Gal(b1-4)[Fuc(a1-3)]GlcNAc
# Outline: as §1
# [9] = molecular target: GlcNAc(a1-6)Gal(b1-4)GlcNAc
# Outline: as §1
# [10] = molecular target: GlcNAc(b1-2)Gal(b1-3)GalNAc
# Outline: as §1
# [11] = molecular target: GlcNAc(b1-2)Man(a1-3)[GlcNAc(b1-2)Man(a1-6)]Man(b1-4)GlcNAc(b1-4)GlcNAc
# Outline: as §1
# [12] = molecular target: GlcNAc(b1-2)Man(a1-3)[GlcNAc(b1-2)Man(a1-6)]Man(b1-4)GlcNAc(b1-4)[Fuc(a1-6)]GlcNAc
# Outline: as §1
# [13] = molecular target: GlcNAc(b1-2)Man(a1-3)[GlcNAc(b1-4)][GlcNAc(b1-2)Man(a1-6)]Man(b1-4)GlcNAc(b1-4)GlcNAc
# Outline: as §1
# [14] = molecular target: GlcNAc(b1-2)[GlcNAc(b1-4)]Man(a1-3)[GlcNAc(b1-2)Man(a1-6)]Man(b1-4)GlcNAc(b1-4)GlcNAc
# Outline: as §1
# [15] = molecular target: GlcNAc(b1-2)[GlcNAc(b1-4)]Man(a1-3)[GlcNAc(b1-4)][GlcNAc(b1-2)Man(a1-6)]Man(b1-4)GlcNAc(b1-4)GlcNAc
# Outline: as §1
# [16] = molecular target: GlcNAc(b1-2)[GlcNAc(b1-4)]Man(a1-3)[GlcNAc(b1-4)][GlcNAc(b1-2)[GlcNAc(b1-6)]Man(a1-6)]Man(b1-4)GlcNAc(b1-4)GlcNAc
# Outline: as §1
# [17] = molecular target: GlcNAc(b1-2)[GlcNAc(b1-4)]Man(a1-3)[GlcNAc(b1-4)][GlcNAc(b1-2)[GlcNAc(b1-6)]Man(a1-6)]Man(b1-4)GlcNAc(b1-4)[Fuc(a1-6)]GlcNAc
# Outline: as §1
# [18] = molecular target: GlcNAc(b1-2)[GlcNAc(b1-6)]Man(a1-6)[GlcNAc(b1-2)Man(a1-3)]Man(b1-4)GlcNAc(b1-4)GlcNAc
# Outline: as §1
# [19] = molecular target: GlcNAc(b1-2)[GlcNAc(b1-6)]Man(a1-6)[GlcNAc(b1-2)Man(a1-3)]Man(b1-4)GlcNAc(b1-4)[Fuc(a1-6)]GlcNAc
# Outline: as §1
binder,measurement,setting,value
B1,glycan array binding signal (z-score),Glc(b1-6)Glc,-0.203
same,glycan array binding signal (z-score),GlcA(b1-3)Gal,-0.192
same,glycan array binding signal (z-score),GlcA(b1-3)GlcNAc,-0.174
same,glycan array binding signal (z-score),GlcA(b1-6)Gal,-0.201
same,glycan array binding signal (z-score),[1],-0.175
same,glycan array binding signal (z-score),[2],-0.203
same,glycan array binding signal (z-score),[3],-0.2
same,glycan array binding signal (z-score),[4],-0.196
same,glycan array binding signal (z-score),[5],0.909
same,glycan array binding signal (z-score),[6],-0.046
same,glycan array binding signal (z-score),[7],-0.015
same,glycan array binding signal (z-score),[8],-0.165
same,glycan array binding signal (z-score),[9],-0.201
same,glycan array binding signal (z-score),[10],-0.175
same,glycan array binding signal (z-score),[11],-0.206
same,glycan array binding signal (z-score),[12],-0.193
same,glycan array binding signal (z-score),[13],-0.204
same,glycan array binding signal (z-score),[14],-0.2
same,glycan array binding signal (z-score),[15],-0.195
same,glycan array binding signal (z-score),[16],-0.213
same,glycan array binding signal (z-score),[17],-0.217
same,glycan array binding signal (z-score),[18],-0.201
same,glycan array binding signal (z-score),[19],-0.196
